# Results taken from the antibiotic and cytotoxicity screens of Wong et al. (2023).
# This is one part of the list.
# Assays:
# HSkMC = human skeletal muscle cells; assay: cytotoxicity call (relative viability < 0.9); settings: 10 µM
# HepG2 = assay: cytotoxicity call (relative viability < 0.9); settings: 10 µM
# S. aureus RN4220 = assay: growth inhibition call (relative growth <= 0.2); settings: 50 µM
Structure (SMILES),cytotoxicity call (HSkMC),cytotoxicity call (HepG2),growth inhibition call (S. aureus RN4220)
COc1ccccc1CNC(=O)C[C@@H]1C[C@@H]2c3cc(NC(=O)C4CCOCC4)ccc3O[C@@H]2[C@@H](CO)O1,inactive,inactive,inactive
C[C@@H]1CCCCO[C@@H](CN(C)Cc2ccc(C(F)(F)F)cc2)[C@@H](C)CN([C@@H](C)CO)C(=O)c2cc(NS(=O)(=O)c3cccs3)ccc2O1,inactive,active,inactive
CC(=O)O[C@@H]1C[C@@H]2CC[C@@]1(C)C2(C)C,inactive,inactive,inactive
N#Cc1ccc(O)cn1,inactive,inactive,inactive
C[C@@H]1CCCCO[C@@H](CN(C)C(=O)C2CCCCC2)[C@H](C)CN([C@H](C)CO)C(=O)c2cc(NC(=O)C3CCCCC3)ccc2O1,inactive,inactive,inactive
Nc1ccc2cc3ccc(N)cc3nc2c1.O=S(=O)(O)O,active,active,inactive
Cn1c(=O)c2c(nc(N(CCO)CCO)n2Cc2ccc(F)cc2)n(C)c1=O,inactive,inactive,inactive
CC(C)NC(=O)Nc1ccc2c(c1)CC(=O)N([C@@H](C)CO)C[C@H](C)[C@@H](CN(C)Cc1ccc(-c3ccccc3)cc1)O2,inactive,active,inactive
C[C@@H]1CN([C@@H](C)CO)C(=O)Cc2cc(NC(=O)Nc3ccc(C(F)(F)F)cc3)ccc2O[C@@H]1CN(C)Cc1ccc(C(=O)Nc2ccccc2N)cc1,inactive,active,inactive
C[C@@H]1CN([C@@H](C)CO)S(=O)(=O)c2ccc(-c3cccnc3)cc2O[C@@H]1CN(C)C(=O)c1cccc(F)c1,inactive,inactive,inactive
